Screen size: about 220,000 compounds; about 5,700 (2.6%) were called active. The inconclusive results got no clear call from the source; some entries with a clear call stand among them for comparison. Calls come from the whole dose curve; as a rule, active = well fitted inhibition curve with a large enough effect; inconclusive = small, poorly fitted or top-dose-only effect; inactive = no such curve, though single readings can be large or run the other way. Where the call is inconclusive, the potency comes from a doubtful curve fit.
What follows are compounds tested against Lysine-specific demethylase 5B (Homo sapiens) (UniProt Q9UGL1) (assay: Primary screen for KDM5B Histone Demethylases FDH-coupled qHTS). Settings: FDH-coupled NADH fluorescence (FDH is formaldehyde dehydrogenase); activity change, negative = inhibition: at 57.7 µM (top of the series) unless noted.
In short: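 Coupled FDH/NAD⁺ fluorescence readout. KDM5BΔAP 200 nM final; compound titration, 10 min RT preincubation; substrate mix 12.5 µM H3K4me3, 25 µM 2-OG, 50 µM Fe(II), 100 µM ascorbate, 0.25 mM NAD⁺, 0.25 U/mL FDH; ΔRFU over 30 min.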
Note: nearly all actives have a fitted effect of over 70% in size.
Potency is the fitted concentration of half-maximal effect; tags give direction and shape of the fitted curve.
Throughout, for activity change, negative = inhibition: 0% is about no effect.

Sequence of UniProt Q9UGL1 (Q9UGL1 whole entry, looked up): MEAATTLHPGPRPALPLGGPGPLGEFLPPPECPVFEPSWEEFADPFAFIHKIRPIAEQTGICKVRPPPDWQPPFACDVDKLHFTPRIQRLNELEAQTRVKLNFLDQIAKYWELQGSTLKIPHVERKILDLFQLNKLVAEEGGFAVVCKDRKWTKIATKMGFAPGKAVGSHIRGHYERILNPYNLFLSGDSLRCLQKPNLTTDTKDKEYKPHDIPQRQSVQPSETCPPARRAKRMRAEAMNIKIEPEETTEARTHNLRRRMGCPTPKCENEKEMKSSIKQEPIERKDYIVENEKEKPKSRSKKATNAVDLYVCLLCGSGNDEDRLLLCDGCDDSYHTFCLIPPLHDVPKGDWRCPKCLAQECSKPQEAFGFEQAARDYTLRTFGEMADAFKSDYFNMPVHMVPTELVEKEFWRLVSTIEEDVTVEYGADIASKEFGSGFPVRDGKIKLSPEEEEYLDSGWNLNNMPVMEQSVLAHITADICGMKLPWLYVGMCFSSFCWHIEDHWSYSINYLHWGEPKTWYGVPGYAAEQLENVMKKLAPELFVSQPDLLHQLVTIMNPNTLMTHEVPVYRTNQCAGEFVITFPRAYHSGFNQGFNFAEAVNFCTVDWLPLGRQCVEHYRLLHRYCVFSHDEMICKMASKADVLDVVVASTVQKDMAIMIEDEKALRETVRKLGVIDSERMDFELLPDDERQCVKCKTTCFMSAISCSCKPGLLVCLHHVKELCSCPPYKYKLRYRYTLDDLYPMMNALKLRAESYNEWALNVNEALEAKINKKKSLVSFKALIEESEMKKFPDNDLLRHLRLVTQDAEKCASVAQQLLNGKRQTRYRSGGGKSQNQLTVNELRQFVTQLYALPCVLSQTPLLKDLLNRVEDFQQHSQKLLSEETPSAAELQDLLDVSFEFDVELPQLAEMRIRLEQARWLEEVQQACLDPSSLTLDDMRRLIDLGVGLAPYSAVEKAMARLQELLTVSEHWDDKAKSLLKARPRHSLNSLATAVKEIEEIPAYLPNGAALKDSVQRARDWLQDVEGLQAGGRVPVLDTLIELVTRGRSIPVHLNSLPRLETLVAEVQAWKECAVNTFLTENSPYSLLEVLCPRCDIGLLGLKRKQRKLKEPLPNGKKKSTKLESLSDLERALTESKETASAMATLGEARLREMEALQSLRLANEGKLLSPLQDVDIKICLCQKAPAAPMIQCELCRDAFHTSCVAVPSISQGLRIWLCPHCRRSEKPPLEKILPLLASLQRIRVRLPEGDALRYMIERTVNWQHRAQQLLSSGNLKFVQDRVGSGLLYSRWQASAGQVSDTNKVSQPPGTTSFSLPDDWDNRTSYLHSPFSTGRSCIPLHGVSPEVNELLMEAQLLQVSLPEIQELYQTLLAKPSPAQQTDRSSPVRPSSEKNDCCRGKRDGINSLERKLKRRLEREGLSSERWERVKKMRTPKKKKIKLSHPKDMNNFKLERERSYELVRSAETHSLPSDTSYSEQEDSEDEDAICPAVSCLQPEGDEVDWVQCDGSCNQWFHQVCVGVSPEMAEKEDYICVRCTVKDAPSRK

| SMILES | Potency | activity change, negative = inhibition |
| --- | --- | --- |
| COc1cccc(-c2cc3c(=O)n(CCNC(=O)c4cc(C)cc(C)c4)ccn3n2)c1 | active: 31.6 µM |  |
| CCN1c2cc(C(=O)Nc3ccc(C)c(F)c3)ccc2C(=O)N2CCCC21 (stereo not drawn) | inconclusive: 20 µM [inhibitor, partial curve, poor fit] |  |
| COC(=O)CC1c2cc(OC)c(OC)cc2CCN1Cc1noc(C(C)(C)C)n1 (stereo not drawn) | inconclusive: 39.8 µM [inhibitor, partial curve, poor fit] |  |
| CCOc1ccc(Oc2coc3cc(O)ccc3c2=O)cc1 | inconclusive: 39.8 µM [inhibitor, partial curve, poor fit] |  |
| COc1ccc(-c2nc(-c3c(C)noc3C)cc3cc(C(C)C)oc23)cn1 | active: 28.2 µM |  |
| O=C(OCc1ccccc1)N1CCC(Oc2cnc3c(ccn3-c3cncnc3)c2)CC1 | inconclusive: 31.6 µM [inhibitor, single point] |  |
| CCn1cc(C(=O)NCCCOC(C)C)c(=O)c2cc(S(=O)(=O)N3CCc4ccccc4C3)ccc21 |  | inconclusive: -38.2% [inhibitor] |
| O=C(O)Cn1ccc2cc(OCc3cccc(-c4ccccc4O)c3)cnc21 | inconclusive: 39.8 µM [inhibitor, partial curve, poor fit] |  |
| C[S+](=O)([O-])N1CCC(Cn2ccc3c(N4CCOCC4)nc(-c4ccccc4F)cc32)CC1 | inconclusive: 3.16 µM [inhibitor, partial curve, poor fit] |  |
| CSc1cccc(NC(=O)Cn2c(N3CCC(C)CC3)nc(C)cc2=O)c1 | inconclusive: 20 µM [inhibitor, partial curve, poor fit] |  |
| Cc1ccc(C(=O)N[C@H]2CO[C@H]3[C@@H]2OC[C@@H]3Nc2nccc(-c3ccc4c(c3)OCO4)n2)cc1 | active: 28.2 µM |  |
| CCCCCCCCCSCc1ccc(C(=O)O)o1 |  | inactive: -5.1% |
| Cc1ncc2c(c1CNC(=O)c1ccccc1C1CCNC1)CCNC2 (stereo not drawn) | inconclusive: 14.1 µM [inhibitor, single point] |  |
| Cc1nn(CC(=O)Nc2ccccc2)c(C)c1S(=O)(=O)N1CCC(C)CC1 |  | inactive: 25.3% |
| CNC(=O)CN(C)C(=O)[C@@H]1CN(c2ncccn2)C[C@H]1COC | inconclusive: 28.2 µM [inhibitor, partial curve, poor fit] |  |
| NC(=O)CSc1oc(-c2ccco2)nc1S(=O)(=O)c1ccc(Br)cc1 | inconclusive: 35.5 µM [inhibitor, single point] |  |
| Cc1cccc(OCc2cc(=O)n3c(-c4ccccc4)csc3n2)c1C |  | inactive: -2.43% |
| CSC1=N/C(=C\c2cccc(OCc3ccccc3)c2)C(=O)S1 |  | inactive: -5.45% |
| CN1CCN(C(=O)c2cccc3nccnc23)CC12CCNCC2 | inconclusive: 11.2 µM [inhibitor, partial curve] |  |
| Cc1cccc(OC2(C(=O)O)CCN(c3cncc(C(N)=O)n3)CC2)c1 | inconclusive: 15.8 µM [inhibitor, partial curve, poor fit] |  |
| Cc1cc2nc(CSc3ccc(NC(=O)C(C)C)cc3)c(=O)[nH]c2cc1C | inconclusive: 28.2 µM [inhibitor, single point] |  |
| COc1cc(OC)cc(-c2onc(C)c2C(=O)NCCCSC)c1 |  | inactive: -14.7% |

| SMILES | Potency | activity change, negative = inhibition |
| --- | --- | --- |
| O=C(N/N=C/c1cccc(Oc2ccccc2)c1)c1ccc(O)cc1O | inconclusive: 35.5 µM [inhibitor, single point] |  |
| Clc1ccc(N=Cc2ccc(C=Nc3ccc(Cl)cc3)cc2)cc1 | inconclusive: 39.8 µM [inhibitor, partial curve, poor fit] |  |
| CC(=O)c1ccc(N2CCN(S(=O)(=O)c3c(C)nc4sc(C)cn4c3=O)CC2)cc1 | inconclusive: 2.82 µM [inhibitor, partial curve, poor fit] |  |
| C=CCN1C(=O)c2ccccc2NC1c1ccc(Br)s1 (stereo not drawn) | inconclusive: 22.4 µM [inhibitor, partial curve, poor fit] |  |
| O=C(NCCN1CCCCC1)c1ccc(-c2ccc(N3CCCCC3)nc2)cc1 | active: 28.2 µM |  |
| CCOC(=O)C1=CN(CC(=O)N(C)c2ccccc2)S(=O)(=O)N=C1C |  | inactive: 8.5% |
| O=C1CN(C(=O)Cc2ccc(F)cc2)C(c2ccccc2)c2cc(Br)ccc2N1 (stereo not drawn) | inconclusive: 1.78 µM [inhibitor, full curve, poor fit] |  |
| CCOc1ccc(CC(=O)NCCn2ccn3nc(-c4cccc(OC)c4)cc3c2=O)cc1 | inconclusive: 17.8 µM [inhibitor, partial curve] |  |
| COc1cc(F)ccc1-c1ccnc2nc(CC(C)C)nn12 | active: 28.2 µM |  |
| O=C(N[C@H]1CCN2C(=O)c3ccc(Cl)cc3NC(=O)[C@H]12)c1cccs1 |  | inactive: 3.35% [at 86.2 µM] |
| CCOC(=O)c1cnc(NC2CCCC2)c2ccccc12 | inconclusive: 1.78 µM [inhibitor, partial curve, poor fit] |  |
| Cc1ccc(C(=O)COC(=O)c2ccc(N3CCCC3=O)cc2)cc1C |  | inactive: 9.27% |
| COc1cccc(C(=O)Nc2ccc3oc(=O)ccc3c2)c1 | inconclusive: 25.1 µM [inhibitor, single point] |  |
| O=c1c2nc(-c3ccc(F)cc3)ccc2ncn1Cc1ccccn1 | active: 31.6 µM |  |
| CCNC(=O)N1CC(C(=O)NCc2ccco2)CC(c2ccc(OC)c(OC)c2)C1 (stereo not drawn) | inconclusive: 31.6 µM [inhibitor, single point] |  |
| CCOc1nccnc1NC1CCN(C(=O)c2cccn2C)CC1 | active: 28.2 µM |  |
| O=C1[C@@H]2C[C@@H](CN2Cc2nccs2)Oc2ccccc2N1CC1CC1 | inconclusive: 31.6 µM [inhibitor, single point] |  |
| COc1ccc(C2=C(O)C(=O)N(c3ccc(OC)cc3)C2c2cccc(Br)c2)cc1 (stereo not drawn) | inconclusive: 31.6 µM [inhibitor, partial curve, poor fit] |  |
| Cc1nc2ccccc2n1CCc1nc2c3ccccc3nc(SCc3cccc(F)c3)n2n1 |  | inactive: 13% |
| CC1=C(C(=O)Nc2ccccc2)C(c2ccccc2C)n2ncc(C(=O)Nc3ccccc3)c2N1 (stereo not drawn) | inconclusive: 28.2 µM [inhibitor, partial curve, poor fit] |  |
| c1cncc(CN2CC(N3CCc4ccccc43)C2)c1 | inconclusive: 100 µM [inhibitor, partial curve] |  |
